Assay results taken from the supplement of paper PMC7125110.
± gives the standard error. Variants at the background level are over-represented here.

B1: glmS ribozyme (parent)
chain: AUAAAAGCGCCAGAACUACAGAAAUGUAGUUGACGAGGAGGAGGUUUAUCGAAUUUUCGGCGGAUGCCUCCAAA

How the values were obtained:
Details in all cases: with glucosamine-6-phosphate
glucosamine-6-phosphate [1] = variants of: B1; assay: self-cleavage kobs at 40 uM GlcN6P; higher = faster cleavage; RNA array
Summary of the method: (§1)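 kobs was derived by fitting per-tile medians to one- or two-exponential decays after normalising signals to baseline and to non-cleaving reference variants. Those signals came from barcoded ribozyme variants transcribed in situ by E. coli RNA polymerase on sequenced MiSeq chips, followed through a hybridised Cy3 probe at 37 °C and imaged over ~14 h. Glucosamine-6-phosphate (40 μM to 10 mM) in HEPES/KCl/Mg(OAc)2 buffer was flowed in. Weighted Michaelis–Menten fits across concentrations then gave kcat and KM.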

glucosamine-6-phosphate [2] = variants of: B1; assay: self-cleavage kobs at 640 uM GlcN6P; higher = faster cleavage; RNA array
Summary of the method: as §1

glucosamine-6-phosphate [3] = variants of: B1; assay: self-cleavage kobs at 160 uM GlcN6P; higher = faster cleavage; RNA array
Summary of the method: as §1

glucosamine-6-phosphate [4] = variants of: B1; assay: self-cleavage kobs at 2500 uM GlcN6P; higher = faster cleavage; RNA array
Summary of the method: as §1

glucosamine-6-phosphate [5] = variants of: B1; assay: self-cleavage kobs at 10000 uM GlcN6P; higher = faster cleavage; RNA array
Summary of the method: as §1

Variant	self-cleavage kobs at 40 uM GlcN6P (glucosamine-6-phosphate [1])	self-cleavage kobs at 640 uM GlcN6P (glucosamine-6-phosphate [2])	self-cleavage kobs at 160 uM GlcN6P (glucosamine-6-phosphate [3])	self-cleavage kobs at 2500 uM GlcN6P (glucosamine-6-phosphate [4])	self-cleavage kobs at 10000 uM GlcN6P (glucosamine-6-phosphate [5])
G38U U54C	< 1e-05 s⁻¹	< 1e-05 s⁻¹	< 1e-05 s⁻¹		
G38U C58U	< 1e-05 s⁻¹			< 1e-05 s⁻¹	< 1e-05 s⁻¹
G40A U47A	0.000132 ± 2.1e-05 s⁻¹	0.00126 ± 0.00024 s⁻¹		0.0033 ± 0.00065 s⁻¹	0.00398 ± 0.00077 s⁻¹
G40C G44A G66U	< 1e-05 s⁻¹	< 1e-05 s⁻¹			< 1e-05 s⁻¹
A39G A52C U65G C70A	< 1e-05 s⁻¹				< 1e-05 s⁻¹
A39U U54G U56C C68G	< 1e-05 s⁻¹				
G38A C67G	< 1e-05 s⁻¹		< 1e-05 s⁻¹		< 1e-05 s⁻¹
A39G C68G	2.98e-05 ± 1.4e-05 s⁻¹	0.000165 ± 5e-05 s⁻¹	6.43e-05 ± 1.3e-05 s⁻¹	0.000286 ± 4.7e-05 s⁻¹	
G41A G44U	< 1e-05 s⁻¹	< 1e-05 s⁻¹	< 1e-05 s⁻¹		< 1e-05 s⁻¹
G40C C71A	0.000225 ± 3.8e-05 s⁻¹	0.00213 ± 0.00024 s⁻¹	0.000451 ± 6.2e-05 s⁻¹		0.00527 ± 0.00096 s⁻¹
A39U C61G	< 1e-05 s⁻¹	< 1e-05 s⁻¹	< 1e-05 s⁻¹	< 1e-05 s⁻¹	< 1e-05 s⁻¹
G38A G43C	< 1e-05 s⁻¹	< 1e-05 s⁻¹	< 1e-05 s⁻¹		< 1e-05 s⁻¹
G38A G43U	< 1e-05 s⁻¹	< 1e-05 s⁻¹	< 1e-05 s⁻¹		< 1e-05 s⁻¹
G40U U45A C50A C67A	< 1e-05 s⁻¹	< 1e-05 s⁻¹			
G40U U57G	< 1e-05 s⁻¹				
G38A A53G	< 1e-05 s⁻¹	< 1e-05 s⁻¹			
A39G G66U	0.000107 ± 1.9e-05 s⁻¹	0.00133 ± 0.00029 s⁻¹		0.00285 ± 0.0009 s⁻¹	0.00451 ± 0.00097 s⁻¹
A39G G40U	9.64e-05 ± 1.6e-05 s⁻¹	0.000551 ± 8.8e-05 s⁻¹	0.000207 ± 4.9e-05 s⁻¹	0.0015 ± 0.00022 s⁻¹	
A39C U55C C70G	< 1e-05 s⁻¹		< 1e-05 s⁻¹		< 1e-05 s⁻¹
G38A C61G	< 1e-05 s⁻¹				
G41A C50U	< 1e-05 s⁻¹	< 1e-05 s⁻¹	< 1e-05 s⁻¹	< 1e-05 s⁻¹	< 1e-05 s⁻¹
A39C A48U A52G	< 1e-05 s⁻¹				< 1e-05 s⁻¹
G37U U49G	< 1e-05 s⁻¹		< 1e-05 s⁻¹		< 1e-05 s⁻¹

Variant	self-cleavage kobs at 40 uM GlcN6P (glucosamine-6-phosphate [1])	self-cleavage kobs at 640 uM GlcN6P (glucosamine-6-phosphate [2])	self-cleavage kobs at 160 uM GlcN6P (glucosamine-6-phosphate [3])	self-cleavage kobs at 2500 uM GlcN6P (glucosamine-6-phosphate [4])	self-cleavage kobs at 10000 uM GlcN6P (glucosamine-6-phosphate [5])
G40C C58G	< 1e-05 s⁻¹	< 1e-05 s⁻¹	< 1e-05 s⁻¹	< 1e-05 s⁻¹	
G41A A52U	< 1e-05 s⁻¹				9.26e-05 ± 1.6e-05 s⁻¹
A39U U56C	3.9e-05 ± 8.2e-06 s⁻¹				
A39U U56G	0.000177 ± 2.7e-05 s⁻¹				
G40A U54C	0.000248 ± 5.6e-05 s⁻¹	0.00211 ± 0.0003 s⁻¹	0.000724 ± 0.00016 s⁻¹	0.00449 ± 0.0013 s⁻¹	0.00467 ± 0.0012 s⁻¹
G40A C50A	< 1e-05 s⁻¹	< 1e-05 s⁻¹	< 1e-05 s⁻¹	< 1e-05 s⁻¹	
A39C U57C	< 1e-05 s⁻¹				
A39C C68A	< 1e-05 s⁻¹	< 1e-05 s⁻¹	< 1e-05 s⁻¹	< 1e-05 s⁻¹	< 1e-05 s⁻¹
G38C G40C A64U	< 1e-05 s⁻¹				< 1e-05 s⁻¹
G38A G41U G63U	< 1e-05 s⁻¹	< 1e-05 s⁻¹	< 1e-05 s⁻¹	< 1e-05 s⁻¹	
G40C G41A C70U	8.35e-05 ± 2.8e-05 s⁻¹			0.000861 ± 0.00023 s⁻¹	
G38C G43C C50U G60C C67U	< 1e-05 s⁻¹				< 1e-05 s⁻¹
G40A U45G	5.96e-05 ± 1.5e-05 s⁻¹	0.000563 ± 0.00021 s⁻¹		0.000133 ± 4.2e-05 s⁻¹	0.000145 ± 3.5e-05 s⁻¹
G40A U45A	0.000251 ± 3.8e-05 s⁻¹	0.00157 ± 0.00029 s⁻¹	0.000585 ± 0.00027 s⁻¹	0.00221 ± 0.00084 s⁻¹	0.00427 ± 0.00099 s⁻¹
A39U C71G	4.48e-05 ± 8.3e-06 s⁻¹				
A39U G40U C70U	9.82e-05 ± 1.8e-05 s⁻¹		0.000392 ± 6.8e-05 s⁻¹		
A39G A53G	0.0015 ± 0.00022 s⁻¹	0.0194 ± 0.0037 s⁻¹	0.00433 ± 0.00068 s⁻¹	0.0404 ± 0.015 s⁻¹	
A39C U56A	5.87e-05 ± 1.3e-05 s⁻¹	0.000412 ± 5.2e-05 s⁻¹	0.000129 ± 3.6e-05 s⁻¹		
G38U G62U G63A	< 1e-05 s⁻¹			< 1e-05 s⁻¹	
A39U C58A G59U C71U	< 1e-05 s⁻¹				
G40C U49C U57A	< 1e-05 s⁻¹				
G40U G41C U47C C68A	< 1e-05 s⁻¹				< 1e-05 s⁻¹
G41A U55C	< 1e-05 s⁻¹				

Variant	self-cleavage kobs at 40 uM GlcN6P (glucosamine-6-phosphate [1])	self-cleavage kobs at 640 uM GlcN6P (glucosamine-6-phosphate [2])	self-cleavage kobs at 160 uM GlcN6P (glucosamine-6-phosphate [3])	self-cleavage kobs at 2500 uM GlcN6P (glucosamine-6-phosphate [4])	self-cleavage kobs at 10000 uM GlcN6P (glucosamine-6-phosphate [5])
G38C A52U	< 1e-05 s⁻¹	< 1e-05 s⁻¹			< 1e-05 s⁻¹
A39C U69G	< 1e-05 s⁻¹	< 1e-05 s⁻¹			< 1e-05 s⁻¹
G40U G51A U54A A64U	< 1e-05 s⁻¹				
G40U U47C	3.24e-05 ± 8.9e-06 s⁻¹	0.000287 ± 3.6e-05 s⁻¹	0.000104 ± 2.3e-05 s⁻¹	0.000958 ± 0.00014 s⁻¹	0.00106 ± 0.00013 s⁻¹
G38U U55C G59C	< 1e-05 s⁻¹	< 1e-05 s⁻¹			
G37U U55A	< 1e-05 s⁻¹	< 1e-05 s⁻¹	< 1e-05 s⁻¹	< 1e-05 s⁻¹	
G40U G43C	< 1e-05 s⁻¹	< 1e-05 s⁻¹	< 1e-05 s⁻¹		
G40C G60U U69C	< 1e-05 s⁻¹			< 1e-05 s⁻¹	< 1e-05 s⁻¹
G38C A39C	< 1e-05 s⁻¹		< 1e-05 s⁻¹	< 1e-05 s⁻¹	
G38U C68G	6.28e-05 ± 1e-05 s⁻¹	0.000294 ± 4.2e-05 s⁻¹	0.000349 ± 0.00017 s⁻¹		0.000182 ± 4e-05 s⁻¹
A39G C50U U57A	< 1e-05 s⁻¹	< 1e-05 s⁻¹		< 1e-05 s⁻¹	< 1e-05 s⁻¹
G40C C58G C67U	< 1e-05 s⁻¹				
G38U A64G	< 1e-05 s⁻¹			< 1e-05 s⁻¹	
G41A G43A U49G C70G	< 1e-05 s⁻¹				< 1e-05 s⁻¹
G40A A64C	< 1e-05 s⁻¹				
A39C C58U G63U	< 1e-05 s⁻¹				< 1e-05 s⁻¹
G41A G59A	< 1e-05 s⁻¹				
G38U G43A	< 1e-05 s⁻¹	< 1e-05 s⁻¹	< 1e-05 s⁻¹		< 1e-05 s⁻¹
A39U A53C G62A C68U	< 1e-05 s⁻¹				< 1e-05 s⁻¹
A39C U47G U57G G62C	< 1e-05 s⁻¹				
G38C A53G	< 1e-05 s⁻¹		< 1e-05 s⁻¹		
G38U G59C	< 1e-05 s⁻¹	< 1e-05 s⁻¹		< 1e-05 s⁻¹	
G40U U57A C68A	< 1e-05 s⁻¹	< 1e-05 s⁻¹			

Variant	self-cleavage kobs at 40 uM GlcN6P (glucosamine-6-phosphate [1])	self-cleavage kobs at 640 uM GlcN6P (glucosamine-6-phosphate [2])	self-cleavage kobs at 160 uM GlcN6P (glucosamine-6-phosphate [3])	self-cleavage kobs at 2500 uM GlcN6P (glucosamine-6-phosphate [4])	self-cleavage kobs at 10000 uM GlcN6P (glucosamine-6-phosphate [5])
G41A G43U G62C	< 1e-05 s⁻¹				
G38C G41C G43U	< 1e-05 s⁻¹	< 1e-05 s⁻¹	< 1e-05 s⁻¹	< 1e-05 s⁻¹	< 1e-05 s⁻¹
A39C G41C	< 1e-05 s⁻¹	< 1e-05 s⁻¹	< 1e-05 s⁻¹	< 1e-05 s⁻¹	< 1e-05 s⁻¹
G38U U57G C67U C70U	8e-05 ± 2.6e-05 s⁻¹	0.000114 ± 4.7e-05 s⁻¹		0.0013 ± 0.00059 s⁻¹	4.29e-05 ± 1.9e-05 s⁻¹
G38C A42U	< 1e-05 s⁻¹	< 1e-05 s⁻¹	< 1e-05 s⁻¹	< 1e-05 s⁻¹	
G38A A42C C67A	< 1e-05 s⁻¹				
A39C A42G	0.000141 ± 1.4e-05 s⁻¹	0.00152 ± 0.00029 s⁻¹	0.000376 ± 7.6e-05 s⁻¹	0.00282 ± 0.00046 s⁻¹	0.0047 ± 0.00074 s⁻¹
A39U A48U C67G	< 1e-05 s⁻¹				
G38U U45A	< 1e-05 s⁻¹			< 1e-05 s⁻¹	< 1e-05 s⁻¹
A39G A52C	< 1e-05 s⁻¹		< 1e-05 s⁻¹		2.99e-05 ± 1.2e-05 s⁻¹
G40A G59C	< 1e-05 s⁻¹				< 1e-05 s⁻¹
A39C G60U C70A	< 1e-05 s⁻¹				
G38U U49C	< 1e-05 s⁻¹	< 1e-05 s⁻¹	< 1e-05 s⁻¹	< 1e-05 s⁻¹	
G38A G59A U69A	< 1e-05 s⁻¹			< 1e-05 s⁻¹	< 1e-05 s⁻¹
A39C C70A	< 1e-05 s⁻¹	< 1e-05 s⁻¹			
A39G U45G	0.00047 ± 6.3e-05 s⁻¹	0.00416 ± 0.00099 s⁻¹	0.00207 ± 0.00047 s⁻¹	0.00467 ± 0.0013 s⁻¹	0.0173 ± 0.0023 s⁻¹
G40U C58A	< 1e-05 s⁻¹		< 1e-05 s⁻¹		3.81e-05 ± 9.5e-06 s⁻¹
G40U G59C G60U C70G	< 1e-05 s⁻¹				< 1e-05 s⁻¹
A39C A52C	< 1e-05 s⁻¹			< 1e-05 s⁻¹	
A39G A53C G60C	< 1e-05 s⁻¹				< 1e-05 s⁻¹
G38C G40C	< 1e-05 s⁻¹	< 1e-05 s⁻¹	< 1e-05 s⁻¹	< 1e-05 s⁻¹	< 1e-05 s⁻¹
G41C A48G	< 1e-05 s⁻¹	< 1e-05 s⁻¹		< 1e-05 s⁻¹	< 1e-05 s⁻¹
G40U A64U	< 1e-05 s⁻¹		< 1e-05 s⁻¹		
